Data as given in PubChem BioAssay AID1645887 (National Center for Advancing Translational Sciences (NCATS), 2021).
Values joined by “and” are separate entries in the source; they are usually repeats but may differ in a detail not shown here. Equal entries are not always repeated. Out of some 16,000 compounds screened, about 40 (0.2%) were called active. Not shown: some 1% with an inconclusive outcome. The call rests on the fitted dose curve; in most records, active means well fitted activation curve with a large enough effect; inconclusive means small, poorly fitted or top-dose-only effect, or another doubt; inactive means no such curve, though single readings can be large or run the other way. The list shows a part of the results.

molecular target: Rap guanine nucleotide exchange factor 4 (Homo sapiens) (UniProt Q8WZA2); experiment: Validation qHTS for agonist of cAMP-regulated guanine nucleotide exchange factor 4 (EPAC2); conditions: EPAC2 Rap1B BODIPY-GDP exchange, fluorescence; activation: active compounds read high;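 further: exchange makes BODIPY-GDP fluorescence drop when released from Rap1B; series mostly up to about 150 µM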
Method in brief: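 Signal normalized against 6.5 mM cAMP as agonist control. Mix of EPAC2 (100 nM), RAP1B-BODIPY-GDP (250 nM) and GDP (50 uM) was read kinetically at 480/540 nm, every 5 min over 30 min, after 5 min room-temperature incubation with compound.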
On the % scale 0 is the no-effect control and ±100 the full control effect.

UniProt Q8WZA2, sequence (Q8WZA2 whole entry, looked up): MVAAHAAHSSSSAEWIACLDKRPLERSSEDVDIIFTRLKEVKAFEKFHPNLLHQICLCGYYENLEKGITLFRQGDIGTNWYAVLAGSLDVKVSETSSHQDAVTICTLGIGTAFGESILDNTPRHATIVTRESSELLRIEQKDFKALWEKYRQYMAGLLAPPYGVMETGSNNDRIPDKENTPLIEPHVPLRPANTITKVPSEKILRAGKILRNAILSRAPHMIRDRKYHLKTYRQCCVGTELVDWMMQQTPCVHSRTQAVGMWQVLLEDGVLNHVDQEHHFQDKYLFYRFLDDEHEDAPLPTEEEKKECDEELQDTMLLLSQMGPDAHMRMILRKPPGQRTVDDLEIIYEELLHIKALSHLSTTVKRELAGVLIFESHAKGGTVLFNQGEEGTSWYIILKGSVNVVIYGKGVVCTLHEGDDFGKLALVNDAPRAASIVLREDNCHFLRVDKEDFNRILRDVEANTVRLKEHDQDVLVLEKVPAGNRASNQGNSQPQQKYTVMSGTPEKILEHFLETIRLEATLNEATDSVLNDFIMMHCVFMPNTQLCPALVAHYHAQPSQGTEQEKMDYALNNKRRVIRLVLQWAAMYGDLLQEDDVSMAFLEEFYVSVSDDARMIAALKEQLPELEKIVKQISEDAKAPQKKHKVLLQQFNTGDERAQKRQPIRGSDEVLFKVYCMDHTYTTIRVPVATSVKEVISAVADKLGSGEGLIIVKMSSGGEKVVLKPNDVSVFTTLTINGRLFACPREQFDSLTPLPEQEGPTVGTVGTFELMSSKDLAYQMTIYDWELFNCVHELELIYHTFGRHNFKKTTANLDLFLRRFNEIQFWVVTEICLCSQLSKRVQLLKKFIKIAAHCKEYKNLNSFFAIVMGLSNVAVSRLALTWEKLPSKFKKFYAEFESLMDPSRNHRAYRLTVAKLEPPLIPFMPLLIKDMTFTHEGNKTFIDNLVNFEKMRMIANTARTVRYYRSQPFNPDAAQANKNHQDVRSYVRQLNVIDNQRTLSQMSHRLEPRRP

activation, inactive:
COC(=O)[C@H]1[C@H]2CC3c4[nH]c5ccccc5c4CCN3C[C@@H]2CC[C@@H]1O (stereo partly drawn) 12.5%, COC(=O)c1c(OCc2cccnc2)cc(=O)n2c1CCN(C(=O)c1c3c(nn1C)CCCC3)CC2 -8.25%, CC(C)=CCOc1ccc(/C=C/C(=O)c2ccc(OCC=C(C)C)cc2OCC(=O)O)cc1 -11.1%, C[C@@H]1CN(CCCn2c3ccccc3c3ccccc32)C[C@H](C)N1 -19.1%, COC1=CC(C)C2CC3OC(=O)CC4C(C)=C(OC)C(=O)C([C@]2(C)C1=O)[C@]34C (stereo partly drawn) 4.87%, O=c1nc2ccccc2c2n1C[C@H](CN1CCN(c3ccccc3)CC1)N2 -8.13%, COc1ccc(O)c(CN2CCOc3c(cc(-c4cccc(OC)n4)cc3OC)C2)c1 -27.5%, CC(C)(O)CCC(O)[C@@](C)(O)C1CC[C@]2(O)C3=CC(=O)C4CC(O)C(O)C[C@]4(C)C3CC[C@]12C (stereo partly drawn) 2.04%, COc1ccccc1-c1coc2cc(O)ccc2c1=O -13.1%, CC(=O)N[C@@H](Cc1c[nH]c2ccccc12)C(=O)O -17%, Oc1ccc(C2CNCCc3c2cc(O)c(O)c3Cl)cc1 (stereo not drawn) -1.59% and -60.5%, COc1ccccc1CNc1ncnc2ccc(-c3c(C)noc3C)cc12 1.62%, CC(C)c1c(C(=O)NC(c2cccnc2)C(F)(F)F)cnn1-c1nccc(-c2cccs2)n1 (stereo not drawn) -5.04%, CC(C(=O)O)c1cccc(Oc2ccccc2)c1 (stereo not drawn) -2.76% and -10.6%, CCC1CN(Cc2cccn2-c2ccccn2)Cc2cc(OC)ccc2O1 (stereo not drawn) -10.9%, CCn1c(-c2cccc(OC)c2)nc2cc(NC(C)=O)cc(C(=O)N3CCCC(C(C)=O)C3)c21 (stereo not drawn) -22.1%, O=C(Nc1cccc(F)c1)N1CC[C@@]2(CCCN(C(=O)c3ccncc3)C2)C1 -2.29%, O=C(C[n+]1ccnc2ccccc21)c1ccc(Br)cc1 -29.6%, O=C(Nc1cccc(F)c1)N1CC[C@@]2(CCCN(C(=O)c3cc(C(F)(F)F)cc(C(F)(F)F)c3)C2)C1 -26.4%, CC(C)c1c(C(=O)N(C)C2CCN(C)CC2)cnn1-c1nccc(-c2ccco2)n1 -6.08%, COc1ccc(/C=N/NC(=O)c2ccncc2)cc1OC -10.5%, COC(=O)N1CCC2(CC1)CN(C(c1ccccc1)c1ccccc1)C2 11.6%, COc1cc(C(=S)N2CCOCC2)ccc1O -5.22%
